According to PubChem BioAssay AID662 (National Center for Advancing Translational Sciences (NCATS), 2007):
The whole screen tested about 71,000 compounds, of which about 1,800 (2.5%) were called active. Inconclusive results, whose numbers are uncertain, are shown with a selection of clear calls. Calls follow the shape of the dose curve; as a rule, active = well fitted activation curve with a large enough effect in the signal ratio, with a control signal flat (not every such curve was filed as active); inconclusive = small, poorly fitted or top-dose-only effect, or effect the other way, or a change in a side signal; inactive = flat fitted curve, though single readings scatter; the % refers to the signal ratio. Where the call is inconclusive, the potency comes from a doubtful curve fit.

Test: Cell signaling CRE-BLA (Fsk stim); as to activity change, negative = inhibition: % of control where 0% means no effect
Conditions: CHO CRE-bla reporter (cAMP response element driving beta-lactamase), forskolin EC10, beta-lactamase ratio; activity change, negative = inhibition: at 38.2 µM (top of the series) unless noted
How it was run: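 CRE-bla CHO cells stimulated with EC10 NKH 477 (water-soluble forskolin) and compound titrations, 3 h at 37C; beta-lactamase read with CCF4 after 2 h at room temperature. Activity from 460/530 nm emission ratio, AC50 values for positive or negative modulation.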
Potency is read from the fitted curve at half-maximal effect; tags tell the direction and shape of the fitted curve.

SMILES	activity change, negative = inhibition	Potency
Cc1ccc(C(=O)Nc2ccccc2C(=O)NC2CCCCC2)cc1S(=O)(=O)N1CCOCC1	inconclusive: 7.05%	–
COC(=O)[C@@]1(Cc2ccc(F)cc2)[C@H]2c3cc(C(=O)N(C)C)n(CCN4CCOCC4)c3C[C@H]2CN1C(=O)c1ccccc1	inconclusive: -8.78%	–
CN(C(=O)c1ccc2c(=O)n3c(nc2c1)CCCCC3)c1ccccc1	–	inconclusive: 25.1 µM [rising, single point]
c1ccc(-c2nnnn2CCOCCn2nnnc2-c2ccccc2)cc1	–	inconclusive: 5.01 µM [falling, single point]
Cc1ccc(C(=O)Nc2ccc(Cl)cn2)cc1	–	inconclusive: 10 µM [rising, single point]
CN(CCCNC(=O)c1ccc(N2CCCC2=O)cc1)c1ccccc1	inactive: -25.5%	–
Cc1cc(=O)c2c(O)c(O)ccc2o1	inconclusive: 29.5%	–
COc1ccccc1CNc1ccnc(-c2cccc(C#N)c2)n1	–	inconclusive: 12.6 µM [rising, partial curve]
CCOC(=O)c1c(NC(=O)CSc2nnc(Cc3csc(N)n3)n2C)sc(C)c1C	–	inconclusive: 12.6 µM [rising, single point]
c1csc(-c2csc3nc(CN4CCOCC4)nc(NCc4ccc5c(c4)OCO5)c23)c1	–	inconclusive: 15.8 µM [rising, single point]
COc1cc(-c2nc(-c3ccccn3)no2)cc(OC)c1OC	–	active: 1.26 µM
Cc1cccc2nc(CSc3nncn3-c3ccccc3)cn12	–	inconclusive: 12.6 µM [rising, single point]
CC(C)Cc1nnc(NC(=O)CCN2C(=O)c3ccccc3C2=O)s1	–	inconclusive: 10 µM [rising, partial curve]
c1ccc2occc2c1	inactive: -12.5%	–
O=C(c1ccc(Cl)cc1)N1CCN(C(=O)c2ccco2)CC1	inconclusive: -5.08%	–
COc1c(O)cc2oc3cc(O)c(CC=C(C)C)c(O)c3c(=O)c2c1CC=C(C)C	inconclusive: -19.2%	–
O=C(Nc1ccc2c(c1)OCCO2)c1ccc(Br)c(S(=O)(=O)N2CCOCC2)c1	–	inconclusive: 0.02 µM [rising, single point]
CCCn1c(=S)[nH]c2cc(C(=O)N3CCCC(C(=O)OCC)C3)ccc2c1=O (centres undefined)	–	inconclusive: 20 µM [rising, single point]
Cc1ccc(C)c(Cn2c(CO)nc3ccccc32)c1	inactive: 0.607%	–
CCCCNC(=O)C(c1ccc(OCC(=O)OC)c(C(=O)OC)c1)N(Cc1ccccn1)C(=O)CCCCCN1C(=O)NC(c2ccc(-c3ccccc3)cc2)C(C(=O)OCc2ccccc2)=C1C (centres undefined)	inconclusive: 7.15%	–

SMILES	activity change, negative = inhibition	Potency
COc1cccc(Nc2cc(C)nc3nc(C)nn23)c1	–	active: 12.6 µM
CCOC(=O)C1CCCN(C(=O)c2cc(=O)c3ccccc3o2)C1 (centres undefined)	–	inconclusive: 5.01 µM [falling, single point]
COc1ccc2c(c1)c1nnc(SCC(=O)N3CCCCC3C)nc1n2C (centres undefined)	–	inconclusive: 0.501 µM [rising, full curve]
NCCc1nc(-c2nc(C(=O)O)cs2)cs1	inactive: 7.48% [at 7.6 µM]	–
C/C(Cl)=C\Cn1c(N2CCCC2)nc2c1c(=O)[nH]c(=O)n2C	–	active: 12.6 µM
CCC1Oc2ccc(C)cc2N(Cc2cccc(C)c2)C1=O (centres undefined)	inconclusive: 2.22%	–
CC(=O)C1C(=O)CC(C)(O)C(C(C)=O)C1c1ccc(N(C)C)cc1 (centres undefined)	inactive: -3.6%	–
NS(=O)(=O)c1ccc(NC(=O)CCc2ccccc2)cc1	inconclusive: -0.453%	–
COc1cccc(-c2cc(C(=O)Nc3cc(OC)c(OC)c(OC)c3)no2)c1	–	inconclusive: 12.6 µM [rising, partial curve]
CCOc1cc(C)c(C(C)C)cc1S(=O)(=O)N1CCN(C)CC1	inconclusive: -6.93%	–
C=CCn1c(C)cc(C(=O)COC(=O)COc2ccccc2C#N)c1C	–	inconclusive: 3.98 µM [falling, single point]
O=C(c1cnccn1)N1CCC[C@@]2(CCN(Cc3ccccc3)C2)C1	inactive: -1.14%	–
CCOC(=O)c1c(C)[nH]c(C(=O)Cn2nnc(-c3ccccc3Cl)n2)c1C	inconclusive: 26.9%	–
CCOC(=O)c1cc2c(=O)n3cccc(C)c3nc2n(Cc2ccco2)c1=NC(=O)c1cccnc1	–	inconclusive: 0.794 µM [rising, full curve, poor fit]
CCn1cc(C(=O)N2CCN(C(=O)c3ccco3)CC2)c2cc(OC)c(OC)cc2c1=O	–	active: 10 µM
O=c1oc2c3c(nn2c2ccccc12)CCCC3	–	inconclusive: 15.8 µM [rising, single point]
CCOc1cc(-c2conc2N)cc(OCC)c1OCC	inconclusive: 27.5%	–
Cn1c(=O)c2c(nc(CN3CCC(C(N)=O)CC3)n2CCc2ccccc2)n(C)c1=O	inconclusive: 12.4%	–
NC(=O)N[C@H]1NC(=O)NC1=O	inactive: 0.547% [at 17.1 µM]	–
